# Results: patent US20250387505A1 (GENEQUANTUM HEALTHCARE SUZHOU, published 2025)
# T1: human FGFR3 (Sinobiological, 16044-H08H) (human, UniProt P22607 23-375)
# T1 construct: Bought protein
# T1 sequence (looked up): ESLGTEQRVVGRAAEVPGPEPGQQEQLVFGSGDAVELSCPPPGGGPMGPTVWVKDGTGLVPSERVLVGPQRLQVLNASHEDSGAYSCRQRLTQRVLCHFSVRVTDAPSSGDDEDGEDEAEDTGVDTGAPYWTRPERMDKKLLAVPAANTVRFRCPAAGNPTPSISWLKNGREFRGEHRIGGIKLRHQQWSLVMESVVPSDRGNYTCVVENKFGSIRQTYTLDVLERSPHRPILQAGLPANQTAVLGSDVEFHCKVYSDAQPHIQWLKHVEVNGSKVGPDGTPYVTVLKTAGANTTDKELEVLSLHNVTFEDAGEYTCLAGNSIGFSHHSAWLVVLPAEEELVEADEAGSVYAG
# T2: Human FGFR3-IIIb protein (R&D systems, 1264-FR-050) (Human, UniProt P22607-2 23-377)
# T2 construct: Bought protein
# T2 sequence (looked up): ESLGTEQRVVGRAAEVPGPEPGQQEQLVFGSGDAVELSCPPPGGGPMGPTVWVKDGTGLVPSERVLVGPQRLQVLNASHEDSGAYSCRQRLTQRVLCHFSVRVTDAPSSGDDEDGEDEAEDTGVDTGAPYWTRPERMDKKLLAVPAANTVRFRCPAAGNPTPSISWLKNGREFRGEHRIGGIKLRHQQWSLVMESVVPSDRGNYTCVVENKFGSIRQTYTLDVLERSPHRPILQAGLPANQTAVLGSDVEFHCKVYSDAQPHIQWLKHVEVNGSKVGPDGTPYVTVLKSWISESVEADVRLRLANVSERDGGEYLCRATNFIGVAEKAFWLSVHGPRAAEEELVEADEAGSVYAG
# T3: cynomolgus FGFR3 protein (Sino Biological, 90313-C02H) (cynomolgus, UniProt A0A2K5V1U5 23-376)
# T3 construct: Bought protein; also called Monkey FGFR3
# T3 sequence: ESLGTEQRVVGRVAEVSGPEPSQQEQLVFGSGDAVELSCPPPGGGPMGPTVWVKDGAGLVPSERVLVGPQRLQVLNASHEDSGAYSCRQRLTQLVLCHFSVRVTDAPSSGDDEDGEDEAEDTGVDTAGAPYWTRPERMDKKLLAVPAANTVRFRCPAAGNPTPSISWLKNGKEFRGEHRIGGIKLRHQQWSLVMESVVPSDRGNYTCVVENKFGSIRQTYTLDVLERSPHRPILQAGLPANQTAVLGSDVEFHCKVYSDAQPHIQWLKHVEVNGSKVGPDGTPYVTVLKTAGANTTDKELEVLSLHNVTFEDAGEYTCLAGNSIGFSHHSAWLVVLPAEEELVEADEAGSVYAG
# T4: mouse FGFR3 protein (R&D systems, 710-MF-050) (mouse, UniProt Q61851 21-369, limits assumed)
# T4 construct: Bought protein
# T4 sequence (looked up): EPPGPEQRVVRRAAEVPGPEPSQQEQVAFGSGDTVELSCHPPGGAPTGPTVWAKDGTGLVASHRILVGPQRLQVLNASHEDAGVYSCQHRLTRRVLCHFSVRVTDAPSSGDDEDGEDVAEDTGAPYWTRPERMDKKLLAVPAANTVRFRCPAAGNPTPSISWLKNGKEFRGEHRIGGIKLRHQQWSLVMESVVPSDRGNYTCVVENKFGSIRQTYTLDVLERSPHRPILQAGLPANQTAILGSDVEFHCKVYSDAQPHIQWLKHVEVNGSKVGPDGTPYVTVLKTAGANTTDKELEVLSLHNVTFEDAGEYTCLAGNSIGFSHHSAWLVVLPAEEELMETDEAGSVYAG
# B1: ADC19 (A9Q conjugated with Linker-Payload 1) (antibody, human IgG1, lambda, DAR 3.62)
# heavy: EVQLLESGGGLVQPGGSLRLSCAASGFTFSSYDMSWVRQAPGKGLEWVSGIYSGDGSIYYADSVKGRFTISRDNSKNTLYLQMNSLRAEDTAVYYCAKDGPMNEESRFDYWGQGTLVTVSS[human IgG1 constant region not written out]
# light: QSVLTQPPSASGTPGQRVTISCSGSSSNIGNNYVSWYQQLPGTAPKLLIYADSKRPSGVPDRFSGSKSGTSASLAISGLRSEDEADYYCASWDYSLSGYVFGGGTKLTVLGQPKAAPSVTLFPPSSEELQANKATLVCLISDFYPGAVTVAWKADSSPVKAGVETTTPSKQSNNKYAASSYLSLTPEQWKSHRSYSCQVTHEGSTVEKTVAPTECGALPETGG
# modifications: C-terminal LPETGG: the peptide bond upstream of GG is cleaved by Sortase A and the chain is linked to the free N-terminal G3 of Linker-Payload 1 (two DXd payloads per linker)
# notes: Antibody-drug conjugate; in the conjugate the terminal GG is replaced by the GGG of the linker
# B2: ADC20 (A9Q conjugated with Linker-Payload 2) (antibody, human IgG1, lambda, DAR 3.58)
# heavy: B1 heavy
# light: B1 light
# modifications: C-terminal LPETGG: the peptide bond upstream of GG is cleaved by Sortase A and the chain is linked to the free N-terminal G3 of Linker-Payload 2 (two payloads per linker)
# B3: anti-FGFR3 antibody A9 (antibody, human IgG1, lambda)
# heavy: B1 heavy
# light: QSVLTQPPSASGTPGQRVTISCSGSSSNIGNNYVSWYQQLPGTAPKLLIYADSKRPSGVPDRFSGSKSGTSASLAISGLRSEDEADYYCASWDYSLSGYVFGGGTKLTVLGQPKAAPSVTLFPPSSEELQANKATLVCLISDFYPGAVTVAWKADSSPVKAGVETTTPSKQSNNKYAASSYLSLTPEQWKSHRSYSCQVTHEGSTVEKTVAPTEC
# notes: produced in Expi 293 cells
# Tests used:
# [1] = biological target: T1, human FGFR3 (Sinobiological, 16044-H08H); assay: ELISA, human FGFR3 coated on the plate
# [2] = biological target: FGFR3 on AMB-BT-0112T cells (glioblastoma patient-derived cells, FGFR3 overexpression, FGFR3-TACC3 fusion) (human (patient-derived cells), UniProt P22607 23-758); assay: cell-based or functional assay
# [3] = biological target: FGFR3 on RT112 cells (bladder cell line, DSMZ ACC418, FGFR3 overexpression) (UniProt P22607 23-806, limits assumed); assay: cell-based or functional assay
# [4] = biological target: T2, Human FGFR3-IIIb protein (R&D systems, …); assay: SPR, Biacore 3000, FGFR3 protein amine-coupled on the chip
# Experimental: (§1) The binding affinity (KD value) of the anti-FGFR3 antibody was measured using a Biacore 3000. Human (FGFR3-IIIb and -IIIc, R&D systems, 1264-FR-050), mouse (R&D systems, 710-MF-050) and cynomolgus FGFR3 proteins (Sino Biological, 90313-C02H) were coated with an amine coupling kit (GE Healthcare Life Sciences, BR100050, Uppsala, Sweden).
# [5] = biological target: T3, cynomolgus FGFR3 protein (Sino …); assay: as above
# Experimental: as §1
# [6] = biological target: T4, mouse FGFR3 protein (R&D systems, …); assay: ELISA, coated mouse FGFR3 (1 ug/mL), anti-human Fab-HRP, OD 450 nm
# Experimental: (§2) 1) One microgram per milliliter of each human FGFR3 (R&D systems, 1264-FR-050), cynomolgus FGFR3 (Sino Biological, 90313-C₀₂H) protein or mouse FGFR3 (R&D systems, 710-MF-050) was coated on 96-well plates at 4° C. for over-night, respectively. The plates were blocked in 3% skim milk containing anti-FGFR3-antibodies and incubated for 1 h at room temperature. After washing with PBST (0.1%), the anti-human Fab antibody conjugated horseradish peroxidase (HRP) (Thermo Scientific, 31482, Waltham, MA, USA) was added at a ratio of 1:3000. Following the wash, the plate was treated with TMB solution (Thermo Scientific, N301, Waltham, MA, USA) as an HRP substrate, and the reaction was stopped with STOP solution (Cell Signaling Technology, #7002, Danvers, MA, USA).
# [7] = biological target: T3, cynomolgus FGFR3 protein (Sino …); assay: ELISA, coated cynomolgus FGFR3 (1 ug/mL), anti-human Fab-HRP, OD 450 nm
# Experimental: as §2
Binder,EC50 [1] [pM],"IC50 (nM), cytotoxicity on 3D single spheroids [2] [nM]","IC50 (nM), cytotoxicity on 3D single spheroids [3] [nM]",Kd [4] [pM],Kd [5] [pM],binding result [6],EC50 (read off the curve) [7] [pM]
B1,42.7,10,,,,,
B2,,21,10,,,,
B3,47.7,,,590,755,no binding (tested: 100 nM (log 2)),~300
